Source: PubChem BioAssay AID493208 (National Center for Advancing Translational Sciences (NCATS), 2011)
In all, about 44,000 compounds went through this assay and about 340 (0.77%) were called active. Roughly 5% stayed inconclusive and do not appear here. The call rests on the fitted dose curve; in most records, active means well fitted inhibition curve with a large enough effect; inconclusive means small, poorly fitted or top-dose-only effect; inactive means flat fitted curve, though single readings scatter. Some of the results follow.

assay: Acumen qHTS Assay for Inhibitors of the mTORC1 Signaling Pathway in MEF (Tsc2-/-, p53-/-) Cells: Sytravon; settings: phospho-rpS6 immunofluorescence/PI, 24 h; series mostly up to 38.3 µM; activity change, negative = inhibition: at the top concentration;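 further: plate controls were DMSO for no effect and rapamycin for full effect; nearly all actives have a fitted effect of over 50% in size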
In short: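 Cell-based qHTS: Tsc2-/- p53-/- MEF, 24 h cpd, 37 °C; fix/perm, anti-phospho-S6 Alexa-488 + PI; Acumen 488 nm scan; pS6/PI ratio, % positive cells; rapamycin 7.5 nM = inhibition ref; PI count = viability.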

SMILES	activity change, negative = inhibition
O=C(CSC1=Nc2ccccc2N=C(c2ccc(F)cc2)C1)Nc1ccc(Cl)cc1	inactive: 6.31%
Cc1ccc(Sc2c(C)nn(C(=O)c3ccc(Br)cc3)c2C)cc1	inactive: 4.3%
COc1ccc(Nc2ncnc3onc(C)c23)c(OC)c1	inactive: 4.16%
COc1ccccc1CNS(=O)(=O)c1ccc2c(c1)CC(C)N2C(=O)C1CCC1 (stereo unspecified)	inactive: -1.89%
COc1ccc(N2CCN(C(=O)C(C)n3c(=O)cc(C(F)(F)F)c4c(C)nn(C)c43)CC2)cc1 (stereo unspecified)	inactive: 0.179%
Cc1ccc(NC(=O)C2CCCN2S(=O)(=O)c2ccc3c(c2)C(C)(C)C(=O)N3C)cc1 (stereo unspecified)	inactive: 1.52%
CCOc1ccc(NC(=O)c2cc(C)nc3c2c(C)nn3-c2cccc(F)c2)cc1	inactive: 6.56%
Cn1cnc(S(=O)(=O)N2CCCC(C(=O)NCc3ccccc3)C2)c1 (stereo unspecified)	inactive: 0%
Cc1cccc(N2CCN(C(=O)Cn3ncc4c([nH]c5ccccc54)c3=O)CC2C)c1 (stereo unspecified)	inactive: 3.32%
COc1ccc(-c2cc(C)no2)cc1S(=O)(=O)NC1CCC(C)CC1 (stereo unspecified)	inactive: 0%
CC1(C(=O)NC2CCCCC2)Cc2ccccc2C(=O)N1Cc1ccc(F)cc1 (stereo unspecified)	inactive: -1.34%
Cc1ccc(S(=O)(=O)c2nc(-c3ccco3)oc2SCc2ccc(F)cc2)cc1	inactive: -20.3%
O=C(CSc1nc2ccccc2nc1Cc1ccccc1)Nc1ccccc1C(F)(F)F	inactive: 4.97%
COc1ccc(S(=O)(=O)NCCc2sc3nc(-c4ccc(C)cc4)nn3c2C)cc1F	inactive: -21.8%
CCOc1ccc(-n2ccnc2SCC(=O)Nc2ccc3c(c2)OCO3)cc1	inactive: -7.53%
CCOc1ccc(CNC(=O)c2cnc3sc(N(CC)CC)nn3c2=O)cc1	inactive: -13.6%
COc1cccc(NC(=O)c2c(N3CCCC3=O)c3cc(C)ccc3n2C)c1	inactive: 0%
O=C(Nc1ccc(C(=O)OCc2cc(=O)n3nc(C4CC4)sc3n2)cc1)c1cccc(Cl)c1	inactive: 0.29%
CCOc1ccc(CCNC(=O)c2cccc(-n3c(C)nc4cccnc43)c2C)cc1	inactive: 1.05%
CCOC(=O)CCCN1C(=O)CCn2nc(-c3cn(C)c4ccccc34)cc21	inactive: -5.31%
CCCCN(Cc1ccccc1)S(=O)(=O)c1cc(Br)cc2c1N(C(C)=O)CC2	inactive: -14.4%

SMILES	activity change, negative = inhibition
COc1ccc(C(=O)Nc2c(C(=O)c3ccc(F)cc3)oc3ccccc23)cc1	inactive: 0.579%
CCc1cccc(C)c1NC(=O)C1CCN(S(=O)(=O)c2cccc3nonc23)CC1	inactive: -4.52%
O=C1CC(c2ccc(Cl)cc2)c2cc3c(cc2N1)OCCO3 (stereo unspecified)	inactive: -2.67%
COc1ccc(-c2nc3c(c(SCC(=O)Nc4ccccc4OC)n2)Cc2cccc(C)c2O3)cc1	inactive: -20.6%
CCCCCn1c(=O)[nH]c2cc(C(=O)N3CCN(c4cccc(OC)c4)CC3)ccc2c1=O	inactive: -35.1%
CCCSc1ncc(Cl)c(C(=O)Nc2scc(-c3ccc(C)cc3)c2C(=O)OCC)n1	inactive: -4.97%
CCOc1ccc(CNC(=O)c2cccn2-c2nnc(N3CCCCC3)s2)cc1OC	inactive: 0%
CCOCCCNC(=O)c1cc(=O)[nH]c2ccc(S(=O)(=O)N3CCCC3)cc12	inactive: 1.74%
CCCCC(=O)Nc1c(C(=O)N2CCN(c3ccccc3)CC2)oc2ccccc12	inactive: 1.58%
CCC(C)NC(=O)Cc1ccc(NC(=O)N2CCCCc3ccccc32)cc1 (stereo unspecified)	inactive: 10.4%
CC(C)Oc1ccc(CNC(=O)C2CCCCN2S(=O)(=O)c2ccc(F)cc2)cc1 (stereo unspecified)	inactive: -7.77%
Cc1cc(C)cc(OCc2cc(=O)n3c4c(sc3n2)CCCC4)c1	inactive: 0.353%
Cc1ccc(-n2c(=O)c3oc4ccccc4c3n(CC(=O)Nc3ccc(F)c(Cl)c3)c2=O)cc1C	inactive: 1.07%
N#Cc1ccccc1NC(=O)C(=O)NCC(c1ccc2c(c1)OCO2)N1CCOCC1 (stereo unspecified)	inactive: -2.36%
O=C(CS(=O)(=O)c1cccc2nsnc12)Nc1ccc(F)cc1F	inactive: 5.68%
CC(C)CCNC(=O)c1c2c(nc3ccccc13)C(=O)N(C1CCCCC1)C2	inactive: 1.15%
CCCCN(C)C(=O)c1ccc2c(c1)N(Cc1ccc(F)cc1)C(=O)c1ccccc1S2(=O)=O	inactive: -0.81%
O=C(Nc1ccccc1F)C1CCN(S(=O)(=O)c2ccc3c(c2)CCCN3C(=O)C2CCC2)CC1	inactive: 1.07%
Cc1ccc(-c2nc(CS(=O)CC(=O)N3CCN(c4ccc(F)cc4)CC3)c(C)o2)cc1 (stereo unspecified)	inactive: 0.974%
O=c1c2sc3ccccc3c2n(Cc2cccc(F)c2)c(=O)n1Cc1ccccc1	inactive: 2.26%
CCOC(=O)Cn1c(=O)n(CC2CCCO2)c2nc(-c3ccccc3OC)nc(C(N)=O)c21 (stereo unspecified)	inactive: 0.154%

SMILES	activity change, negative = inhibition
O=C(NC1CC(=O)N(c2ccc(F)cc2)C1)c1ccc(S(=O)(=O)N2CCCCC2)cc1 (stereo unspecified)	inactive: 0.423%
Cc1ccc2c(c1Br)C(O)(CC(=O)c1ccc(F)cc1)C(=O)N2 (stereo unspecified)	inactive: 2.72%
O=C(NCc1cccs1)c1ccc2c(=O)n3nc(Nc4ccccc4)sc3nc2c1	inactive: -6.15%
Cc1cccc2sc(N(Cc3cccnc3)C(=O)CCc3ccccc3)nc12	inactive: -32.3%
Cc1c(Cl)cccc1NC(=O)CC1Oc2ccccc2NC1=O (stereo unspecified)	inactive: -1.06%
CCOc1ccccc1C(=O)N(Cc1ccco1)Cc1ccco1	inactive: 1.39%
COc1ccccc1CNC(=O)C1CCCN(S(=O)(=O)c2ccc3c(c2)oc(=O)n3C)C1 (stereo unspecified)	inactive: -1.99%
O=C(c1ccc2c(c1)N(Cc1ccccc1F)C(=O)c1ccccc1S2(=O)=O)N1CCC(Cc2ccccc2)CC1	inactive: -6.43%
COc1ccc(-c2cc(C(=O)Nc3c(C(=O)c4ccc(C)cc4)oc4ccccc34)no2)cc1	inactive: -0.335%
O=C(Cn1c(=O)n(Cc2nc(-c3ccccc3)no2)c(=O)c2ccccc21)Nc1cccc(C(F)(F)F)c1	inactive: -0.901%
Cn1cc(-c2cc3n(n2)CCC(=O)N3CCCC(=O)NCc2ccc(Cl)cc2)c2ccccc21	inactive: -4.71%
O=C(CCCn1c(=O)c2cccn2c2ccccc21)Nc1cc(C(F)(F)F)ccc1Cl	inactive: 1.83%
CCC(CC)C(=O)OCc1cc(=O)n2nc(C3CC3)sc2n1	inactive: -10%
CC1=C(c2ccc(Cl)cc2)S(=O)(=O)NC1=NCCCN1CCN(c2cc(C)ccc2C)CC1	inactive: -1.06%
CC1C(=O)Nc2ccc(S(=O)(=O)N3CCCCC3)cc2NC1=O (stereo unspecified)	inactive: -13.5%
CCOC(=O)c1cc(-c2ccc(OC)cc2)n(CCC(=O)Nc2ccccc2OC)c1C	inactive: 5.37%
O=C(CSc1nccn1Cc1ccccc1)NCc1ccco1	inactive: -0.224%
COc1ccc(Cn2c(CCC(=O)Nc3cc(OC)c(OC)c(OC)c3)nc3cccnc32)cc1	inactive: -1.81%
CCOc1ccc(NCc2cccn2-c2nnc(N3CCC(C(=O)NCC(C)c4ccccc4)CC3)s2)cc1 (stereo unspecified)	inactive: -1.81%
